{
  "source": "PubChem BioAssay AID938",
  "about": "(National Center for Advancing Translational Sciences (NCATS), 2007)",
  "note": "Among all 73,000 compounds or so, about 1,800 (2.5%) were called active. This list was built around the results that the source calls inconclusive (neither active nor inactive); the mix of calls is not that of the screen. The call rests on the fitted dose curve; in most records, active means well fitted activation curve with a large enough effect; inconclusive means small, poorly fitted or top-dose-only effect; inactive means no such curve, though single readings can be large or run the other way. No potency is given beside an inconclusive call; the fits are too rough. Potency means the concentration at half of the fitted maximal effect; tags describe the fitted curve by direction and shape.",
  "data": [
    {"experiment": "qHTS Assay for Agonists of the Thyroid Stimulating Hormone Receptor: Activators of Intracellular cAMP Concentrations in Parental HEK 293; further: nearly all actives have a fitted effect of over 55% in size; on activation: % of control where 0% means no effect", "details": "parental HEK293 CNG cAMP sensor, membrane potential fluorescence; activation: at 57.1 µM (top of the series) unless noted", "source_text": "NIH Chemical Genomics Center [NCGC]\nNIH Molecular Libraries Screening Centers Network [MLSCN]\nPI Name: Dr. Marvin Gershengorn\nThis cell based assay utilized a cyclic nucleotide gated ion channel (CNG) as a biosensor for cAMP induction. HEK 293 cells stably expressing the modified CNG were purchased from BD biosciences (http://www.atto.com/products/actone/features_benefits.shtml) . Stimulation of cAMP production causes the CNG to open and subsequent membrane depolarization to occur. A fluorescent membrane potential dye (BD biosciences) was utilized to detect cAMP stimulation in cells.\nThe cells were maintained in DMEM medium (Invitrogen) containing 10 % FBS (Hyclone), 100 units/ml Penicillin, 100 ug/ml Streptomycin (Invitrogen), and 250 ug/ml Geneticin (Invitrogen) and 1 ug/ml Puromycin (Invitrogen) at 37C in 5% CO2. This assay was used as a counterscreen to \"qHTS Assay for Agonists of the Thyroid Stimulating Hormone Receptor\", to control for compounds signaling through endogenous receptors and other targets of HEK 293 cells.\nNCGC Assay Protocol Summary:\nHigh Throughput Screening. Freshly passaged cells were dispensed into 1536-well assay plates at 4 ul/well in DMEM containing phenol red (Invitrogen), 10% FCS (Hyclone), and 100 units/ml Penicillin, 100 ug/ml Streptomycin (Invitrogen) and incubated at 37 C with 5% CO2 for 20 to 36 hrs before the robotic screening. The screen was initiated by addition of 4 ul/well membrane potential dye containing 100 uM RO 20-1724 (Sigma Aldrich), followed by 60 min incubation at room temperature to allow for dye equilibration across the cell membrane. 23 nl/well compound or control was then added to the assay plates, which were incubated for additional 30 min before reading a Envision fluorescence plate reader (Perkin Elmer) in bottom-read mode for fluorescence intensity (emission at 590 nm).\nKeywords: cAMP, CNG Ion Channel, quantitative high throughput screening, qHTS, HTS, probe identification, CNG, cAMP, cyclic nucleotide gated ion channel PubChem", "values": [
      {"smiles": "CN(C)/C=C1\\C(=O)c2ccc(N(C)C)nc2CC1c1ccccc1", "note": "(configuration not stated)", "activation": "inactive: 11.5%"},
      {"smiles": "Cc1c(C(=O)Nc2ccc3oc(-c4cccnc4)nc3c2)oc2ccccc12", "Potency": "inconclusive [activator, partial curve]"},
      {"smiles": "Cn1c(CN2CCOCC2)nc2cc(NC(=O)c3ccc(Cl)cc3)ccc21", "Potency": "inconclusive [activator, partial curve]"},
      {"smiles": "O=C(c1ccco1)N1CCN=C1SCc1ccccc1Cl", "Potency": "inconclusive [activator, partial curve]"},
      {"smiles": "c1ccc(C(Cc2nc(-c3cccnc3)no2)c2ccccc2)cc1", "Potency": "inconclusive [activator, partial curve]"},
      {"smiles": "COc1ccccc1NC(=O)C(C)Sc1nnnn1C", "note": "(configuration not stated)", "Potency": "inconclusive [activator, single point]"},
      {"smiles": "Cc1ccc2cc(C#N)c(SCC(=O)NCc3ccco3)nc2c1", "Potency": "inconclusive [activator, single point]"},
      {"smiles": "Cc1ccc2c(CC(=O)N3CCc4ccccc43)coc2c1", "Potency": "inconclusive [activator, single point]"},
      {"smiles": "O=C(CCn1cccc1)Nc1ccccc1F", "Potency": "inconclusive [activator, full curve]"},
      {"smiles": "CCCN1Cc2cccc(C(=O)Nc3ccc(CN4CCCC4)cc3)c2C1=O", "Potency": "inconclusive [activator, single point]"},
      {"smiles": "CNc1nc(NC)nc(-n2c(C(F)(F)F)nc3ccccc32)n1", "activation": "inactive: 10.7%"},
      {"smiles": "CC(C)NC(=O)[C@@H]1C[C@@]1(C)[C@@H](NC(=O)OCc1ccccc1)c1ccccc1", "Potency": "inconclusive [activator, partial curve]"},
      {"smiles": "CCCCNc1nc(C)nc2c1nc(-c1ccccc1)n2CCN1CCCCC1", "Potency": "active: 12.6 µM"},
      {"smiles": "Cc1ccc(Cl)cc1N1CCN(Cc2nnnn2Cc2ccco2)CC1", "Potency": "active: 7.94 µM"},
      {"smiles": "CCNc1ncc2nc(-c3ccc(Cl)cc3)c(=O)n(-c3ccccc3)c2n1", "activation": "inactive: 17.6%"},
      {"smiles": "COc1cc(NC(=O)c2noc3c2CCC3)c(OC)cc1Cl", "Potency": "inconclusive [activator, partial curve]"},
      {"smiles": "Clc1ccccc1Nc1ncnc2c1nnn2Cc1ccccc1", "Potency": "inconclusive [activator, single point]"},
      {"smiles": "Cc1ccc2[nH]c3c(=O)n(CCCN4CCOCC4)cnc3c2c1", "activation": "inactive: -0.965%"},
      {"smiles": "CC1=C(C(=O)OC2CCCCCC2)C(c2ccc(C)o2)C2=C(CCCC2=O)N1", "note": "(configuration not stated)", "Potency": "inconclusive [activator, single point]"},
      {"smiles": "COC(=O)C1=C(N)OC2=C(C(=O)CCC2)C1c1cccs1", "note": "(configuration not stated)", "Potency": "inconclusive [activator, single point]"},
      {"smiles": "Cc1cc(=O)cc(C)n1-c1ccccc1N1CCOCC1", "activation": "inactive: -10.2%"},
      {"smiles": "COc1cc2c(cc1OC)C1=C(C#N)CN(CC(=O)O)CN1CC2", "activation": "inactive: 5.32%"},
      {"smiles": "COc1nc(-c2ccc(C)cc2)ccc1-c1noc(-c2cccnc2)n1", "activation": "inactive: 9.53%"},
      {"smiles": "O=C(OC1CCCCC1)c1ccc2c(c1)C1C=CCC1C(C(=O)O)N2", "note": "(configuration not stated)", "activation": "inactive: 4.19%"},
      {"smiles": "c1ccc2nc(CC[C@@H]3CCCCN3)ccc2c1", "activation": "inactive: 4.42% [at 11.4 µM]"},
      {"smiles": "Cc1ccc(-c2nc3cc(NC(=O)C(C)C)ccc3o2)cc1", "Potency": "inconclusive [activator, single point]"},
      {"smiles": "Cc1ccc(-c2nn(CC(=O)NCc3ccco3)c(=O)c3ccccc23)cc1", "Potency": "inconclusive [activator, partial curve]"},
      {"smiles": "Clc1ccc(SCCn2ccnc2)cc1", "Potency": "inconclusive [activator, single point]"},
      {"smiles": "COc1ccc(Cl)cc1NC(=O)COc1cccc(-n2cnnn2)c1", "activation": "inconclusive: 33.2% [activator]"},
      {"smiles": "COCCNc1ncnc2ccc(-c3ccccc3OC)cc12", "Potency": "inconclusive [activator, partial curve]"},
      {"smiles": "Cc1cnc(CNc2ncnc3ccc(-c4c(C)noc4C)cc23)cn1", "activation": "inactive: -6.62%"},
      {"smiles": "CCSC[C@@H](N)C(=O)O", "activation": "inactive: -10.2% [at 11.4 µM]"},
      {"smiles": "O=C(c1ccco1)N1CCN(S(=O)(=O)c2ccc(S(=O)(=O)NC3CCCC3)cc2)CC1", "Potency": "inconclusive [activator, full curve, poor fit]"},
      {"smiles": "COc1ccccc1OCC(=O)Nc1ccc(S(=O)(=O)N2CCCCCC2)cc1", "Potency": "inconclusive [activator, single point]"},
      {"smiles": "Cc1ccc(C)c(C(=O)C(C)OC(=O)c2cccn2C)c1", "note": "(configuration not stated)", "Potency": "inconclusive [activator, single point]"},
      {"smiles": "COC(=O)C/C=C\\[C@@H](C)[C@@H](/C=N\\OC[C@@H](O)[C@H]1O[C@H]2OC(C)(C)O[C@H]2[C@@H]1O)OC", "activation": "inactive: -4.64% [at 11.4 µM]"},
      {"smiles": "CCOC(=O)c1nnn(-c2nonc2N)c1COc1cc(C)c(Cl)c(C)c1", "Potency": "inconclusive [activator, partial curve]"},
      {"smiles": "COc1ccc(CN(Cc2ccccn2)C(=O)CN2C(=O)C(C)Oc3ccccc32)cc1", "note": "(configuration not stated)", "Potency": "inconclusive [activator, single point]"},
      {"smiles": "CCN(CC)C(=O)C1CCN(Cc2cccc(OCc3ccccc3)c2)CC1", "Potency": "inconclusive [activator, partial curve]"},
      {"smiles": "COc1ccc(CNC2CC(=O)N(C)C2=O)cc1", "note": "(configuration not stated)", "Potency": "inconclusive [activator, single point]"},
      {"smiles": "CN(C)c1ccc(C(C(=O)NC(C)(C)C)N(C(=O)c2csnn2)C2CC2)cc1", "note": "(configuration not stated)", "Potency": "inconclusive [activator, single point]"},
      {"smiles": "CO[Si](CCCNCCC[Si](OC)(OC)OC)(OC)OC", "activation": "inactive: 13.1%"},
      {"smiles": "C=CCC(NCc1ccccc1)c1ccco1", "note": "(configuration not stated)", "Potency": "inconclusive [activator, single point]"},
      {"smiles": "Cc1cc(N2CCN(S(=O)(=O)c3ccccc3)CC2)c2ccccc2n1", "activation": "inactive: 2.57% [at 11.4 µM]"},
      {"smiles": "CCC(=O)Nc1c(C#N)c2nc3ccccc3nc2n1-c1ccc(C)cc1", "Potency": "inconclusive [activator, single point]"},
      {"smiles": "N#Cc1cccc(NC(=O)N2CCC3(CC2)CCN(C(=O)c2csnn2)CC3)c1", "Potency": "inconclusive [activator, partial curve]"},
      {"smiles": "COC(=O)c1cc2ccccc2c(=O)s1", "activation": "inactive: 5.21%"},
      {"smiles": "O=C(c1cnccn1)N1CCC2(CC1)CN(c1cccc(-c3ccccc3)c1)C2", "activation": "inactive: 13%"},
      {"smiles": "O=C1CCCN1CCC1CCN(C(=O)Nc2ccccc2)CC1", "Potency": "inconclusive [activator, single point]"},
      {"smiles": "CCOC(=O)N1CCN(C(=O)CSCC(=O)Nc2nc(-c3ccc(Cl)s3)cs2)CC1", "Potency": "inconclusive [activator, partial curve]"},
      {"smiles": "CCOc1ccccc1OCC(=O)OCC(=O)Nc1ncc(Cl)cc1Cl", "Potency": "inconclusive [activator, single point]"},
      {"smiles": "c1cc(-c2nc3cc(Oc4ccc5oc(-c6ccncc6)nc5c4)ccc3o2)ccn1", "Potency": "inconclusive [activator, partial curve]"},
      {"smiles": "Cc1ccc(C)c(N2CCN(CCCNC(=O)Cn3cc4c(n3)CCC(C)C4)CC2)c1", "note": "(configuration not stated)", "Potency": "inconclusive [activator, single point]"},
      {"smiles": "CCOc1ccc(CCNC(=O)CCN2C(=O)COc3ccccc32)cc1OCC", "Potency": "inconclusive [activator, single point]"},
      {"smiles": "COC1CCCCC1Nc1cccc(SC)c1", "note": "(configuration not stated)", "Potency": "inconclusive [activator, partial curve]"},
      {"smiles": "Cc1ccc(NC(=O)C2CCN(S(=O)(=O)c3cccc4cccnc34)CC2)nc1", "activation": "inactive: -0.37%"},
      {"smiles": "COCCn1c(SCc2ccc(C(=O)OC)o2)nc2cc(Cl)ccc2c1=O", "Potency": "active: 20 µM"},
      {"smiles": "CCSC1(SCC)N=C(N)C2(C#N)C(c3ccccc3)NC(C)=C(C)C12C#N", "note": "(configuration not stated)", "activation": "inactive: 12%"},
      {"smiles": "CSc1ccc(C2C(C#N)=C(N)Oc3c2ccc(=O)c2c(C)oc(C)c32)cc1", "note": "(configuration not stated)", "activation": "inactive: 0.315%"},
      {"smiles": "O=S(=O)(c1cccs1)N1CCCc2ccccc21", "Potency": "inconclusive [activator, single point]"},
      {"smiles": "O=C(c1ccco1)N1CCC[C@@]2(CCN(C(c3ccccc3)c3ccccc3)C2)C1", "Potency": "active: 15.8 µM"},
      {"smiles": "c1cncc(-c2nc(N3CCCCCC3)c3ccccc3n2)c1", "Potency": "active: 25.1 µM"},
      {"smiles": "COc1ccc(C)cc1NC(=O)c1nnn(CCc2ccccc2)c1N", "activation": "inactive: -8.88% [at 11.4 µM]"},
      {"smiles": "C=C(C)COc1ccc2oc(C)c(C(=O)OCCOC)c2c1", "Potency": "inconclusive [activator, partial curve]"},
      {"smiles": "Cc1ccc(C)c2[nH]c(=O)c(CN(CCN3CCCC3)C(=O)Nc3cccc(Cl)c3)cc12", "Potency": "inconclusive [activator, full curve]"},
      {"smiles": "COc1ccc(S(=O)(=O)N2CCC(C(=O)NCCc3ccc4c(c3)OCO4)CC2)cc1", "Potency": "inconclusive [activator, single point]"},
      {"smiles": "COc1ccc(-c2nnn(CC(=O)N(CC(=O)NCCC(C)C)c3ccccc3)n2)cc1OC", "Potency": "inconclusive [activator, single point]"},
      {"smiles": "COc1ccc(NC(=O)CN2CCN(c3ccc(Cl)cc3)CC2)c(OC)c1", "Potency": "inconclusive [activator, partial curve, poor fit]"},
      {"smiles": "CCS(=O)(=O)Nc1c(C(=O)O)[nH]c2ccccc12", "activation": "inactive: -9.43%"},
      {"smiles": "O=C(CSc1ncnc2c1nnn2Cc1ccccc1F)N1CCN(c2ccccc2)CC1", "Potency": "inconclusive [activator, single point]"},
      {"smiles": "c1ccc(-c2nc3cc(Oc4ccc5oc(-c6ccccn6)nc5c4)ccc3o2)nc1", "activation": "inactive: 5.79%"},
      {"smiles": "CS(=O)(=O)N(CC(=O)NCCSCc1cccc(Cl)c1)c1ccc2c(c1)OCO2", "Potency": "inconclusive [activator, full curve]"}
    ]}
  ]
}
